# Laboratory results taken from PubChem BioAssay (Tox21).
# Where “and” joins values, the source holds several entries; their conditions need not be identical. Equal values may be shown once. This list was built around the results that the source calls inconclusive (neither active nor inactive); the mix of calls is not that of the screen. Where the call is inconclusive, the potency comes from a doubtful curve fit. Calls of active or inactive are those of the source. The call rests on the fitted dose curve; in most records, active means well fitted curve in the direction sought with a large enough effect in the repeat runs; inconclusive means weak or mixed curves; inactive means no such curve, though single readings can be large; an effect the other way counts as inactive or inconclusive.
# System: not listed separately
# Assay: Caspase-3/7 induction in HepG2 cells by small molecules, qHTS cell viability counter screen (AID 1346981); further: nearly all actives have a fitted effect of over 30% in size
# Details: CellTiter-Fluor fluorescence, 17 h; series mostly up to 92.4 µM
# In short: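 Counter screen for cytotoxicity: HepG2 exposed 16 hr to compounds, then CellTiter-Fluor viability signal (fluorescence, 1 hr reagent incubation).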
# Potency means the concentration at half of the fitted maximal effect; tags describe the fitted curve by direction and shape.
row,Compound,Potency
1,O=C1c2ccccc2C(=O)C1c1nc2ccccc2c(Br)c1O,"inconclusive: 77 µM [cytotoxic, single point]"
2,CC1=CC(=O)CC(C)(C)C1,inactive
3,O=C(/C=C/c1ccc([N+](=O)[O-])cc1)c1ccccc1,"inconclusive: 68.7 µM [cytotoxic, single point]"
4,c1ccc(SSc2ccccc2)cc1,inactive
5,O=C(Oc1ccccc1)Oc1ccccc1,inactive
6,Nc1ccc(N=Nc2ccc(N)cc2)cc1,active: 27.3 µM
7,COc1ccc(-n2nc(C(F)F)cc2-c2ccc(S(C)=O)cc2)cc1 (stereo unspecified),inactive

# Target: Nuclear receptor subfamily 1 group I member 2 (Homo sapiens) (UniProt O75469)
# Assay: Human pregnane X receptor (PXR) small molecule agonists, qHTS assay (AID 1346982); further: nearly all actives have a fitted effect of over 35% in size
# Details: PXR-Luc HepG2, CYP3A4 luciferase reporter, 24 h; series mostly up to 92.4 µM
# In short: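 Luminescence (ONE-Glo, 30 min RT) after 24 hr compound exposure of PXR-Luc HepG2 cells; cells rested 5 hr post-plating in 5% charcoal-stripped FBS medium.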
# UniProt O75469, sequence (O75469 whole entry, looked up): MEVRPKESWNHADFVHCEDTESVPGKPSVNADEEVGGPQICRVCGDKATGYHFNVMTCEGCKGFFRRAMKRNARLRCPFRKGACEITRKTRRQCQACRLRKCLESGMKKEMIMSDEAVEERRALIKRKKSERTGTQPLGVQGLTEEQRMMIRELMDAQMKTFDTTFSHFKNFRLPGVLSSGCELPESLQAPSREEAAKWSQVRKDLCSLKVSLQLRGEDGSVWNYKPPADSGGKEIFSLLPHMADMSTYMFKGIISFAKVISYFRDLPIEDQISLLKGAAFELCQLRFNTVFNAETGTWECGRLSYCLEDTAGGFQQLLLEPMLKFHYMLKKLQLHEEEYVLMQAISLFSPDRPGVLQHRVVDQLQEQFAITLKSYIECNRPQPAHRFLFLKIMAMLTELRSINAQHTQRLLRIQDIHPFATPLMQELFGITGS
row,Compound,Potency
1,O=C(Oc1ccccc1)Oc1ccccc1,"inconclusive: 68.3 µM [activator, single point]"
2,Clc1nnc(Cl)c2ccccc12,"inconclusive: 48.3 µM [activator, partial curve]"
3,COc1ccc(-n2nc(C(F)F)cc2-c2ccc(S(C)=O)cc2)cc1 (stereo unspecified),active: 30.6 µM

# Target: Cytochrome P450 2D6 (Homo sapiens) (UniProt P10635)
# Assay: Cytochrome P450 Family 2 Subfamily D Member 6 (CYP2D6) small molecule antagonists: luciferase reporter qHTS assay (AID 1671196); further: nearly all actives have a fitted effect of over 50% in size
# Details: P450-Glo CYP2D6 enzyme assay, luciferin luminescence, 1 h; series mostly up to 115 µM
# In short: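 Inhibition of CYP2D6 was gauged by loss of luminescence, since light produced tracks the luciferin generated from a proluciferin substrate. A 10 min room-temperature preincubation preceded 1 h NADPH-supported turnover.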
# UniProt P10635, sequence (P10635 whole entry, looked up): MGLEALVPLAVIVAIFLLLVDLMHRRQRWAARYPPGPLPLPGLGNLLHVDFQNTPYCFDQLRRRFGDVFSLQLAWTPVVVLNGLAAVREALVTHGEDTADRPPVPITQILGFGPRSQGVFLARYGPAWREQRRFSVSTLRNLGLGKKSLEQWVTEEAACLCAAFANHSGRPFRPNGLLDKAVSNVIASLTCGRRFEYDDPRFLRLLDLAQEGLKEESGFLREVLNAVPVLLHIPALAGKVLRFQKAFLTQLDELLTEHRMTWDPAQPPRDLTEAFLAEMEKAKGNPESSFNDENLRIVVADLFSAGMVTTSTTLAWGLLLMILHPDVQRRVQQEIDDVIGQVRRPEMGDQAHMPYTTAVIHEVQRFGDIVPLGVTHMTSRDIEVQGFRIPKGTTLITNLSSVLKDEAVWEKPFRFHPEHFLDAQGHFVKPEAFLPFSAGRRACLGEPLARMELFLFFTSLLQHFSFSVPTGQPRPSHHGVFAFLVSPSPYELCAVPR
row,Compound,Potency
1,Nc1c(S(=O)(=O)O)cc(Br)c2c1C(=O)c1ccccc1C2=O,"inactive and inconclusive: 39.9 µM [inhibitor, partial curve]"
2,CCCCC/C=C\C/C=C\CCCCCCCC(=O)OC,"inconclusive: 55.8 µM [inhibitor, partial curve, poor fit]"
3,CC1=CC(=O)CC(C)(C)C1,"inconclusive: 36.6 µM [inhibitor, partial curve, poor fit] and inactive"
4,CC(=O)[C@H]1[C@H](C#N)C[C@H]2[C@@H]3CC=C4C[C@@H](O)CC[C@]4(C)[C@H]3CC[C@@]21C,inactive
5,O=C(/C=C/c1ccc([N+](=O)[O-])cc1)c1ccccc1,"inconclusive: 63.4 µM [inhibitor, partial curve]"
6,c1ccc(SSc2ccccc2)cc1,"inconclusive: 40.2 µM [inhibitor, partial curve]"
7,Cc1nc(N)nc(N)c1-c1ccc(Cl)c(Cl)c1,active: 2.19 µM
8,Clc1nnc(Cl)c2ccccc12,"inconclusive: 56.2 µM [inhibitor, partial curve]"
9,CC/C=C\CCOC(C)=O,"inconclusive: 31.7 µM [inhibitor, partial curve, poor fit]"
10,CC(C)(C)c1ccc(OC2CCCCC2O)cc1 (stereo unspecified),"inconclusive: 79.6 µM [inhibitor, partial curve, poor fit]"
11,CC(C)=CCOc1ccc(/C=C/C(=O)c2ccc(OCC=C(C)C)cc2OCC(=O)O)cc1,"inconclusive: 43.6 µM [inhibitor, single point]"
